Reference: PubChem BioAssay AID488969 (Vanderbilt High Throughput Screening Facility, 2010)
Over roughly 110,000 compounds, “z-score” has its median near -0.1; the highest 2% begin near 2. Some of the results follow. Calls of active or inactive are those of the source.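 How the source made its calls: active means z-score in the third read window above 3 or below -3; inactive means the rest.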

target: Metabotropic glutamate receptor 8 (Rattus norvegicus) (UniProt P70579); test: mGluR8 Gi/Go-coupled signaling modulation – cell-based, rat, thallium flux, HTS, primary screen (AID 488969); conditions: HEK293 rat mGluR8, GIRK (G protein-gated inwardly rectifying potassium channel) thallium flux, FluoZin2; at 10 µM; stronger effect = higher value; submaximal glutamate (EC20) added with thallium
Sequence of UniProt P70579 (P70579 whole entry, looked up): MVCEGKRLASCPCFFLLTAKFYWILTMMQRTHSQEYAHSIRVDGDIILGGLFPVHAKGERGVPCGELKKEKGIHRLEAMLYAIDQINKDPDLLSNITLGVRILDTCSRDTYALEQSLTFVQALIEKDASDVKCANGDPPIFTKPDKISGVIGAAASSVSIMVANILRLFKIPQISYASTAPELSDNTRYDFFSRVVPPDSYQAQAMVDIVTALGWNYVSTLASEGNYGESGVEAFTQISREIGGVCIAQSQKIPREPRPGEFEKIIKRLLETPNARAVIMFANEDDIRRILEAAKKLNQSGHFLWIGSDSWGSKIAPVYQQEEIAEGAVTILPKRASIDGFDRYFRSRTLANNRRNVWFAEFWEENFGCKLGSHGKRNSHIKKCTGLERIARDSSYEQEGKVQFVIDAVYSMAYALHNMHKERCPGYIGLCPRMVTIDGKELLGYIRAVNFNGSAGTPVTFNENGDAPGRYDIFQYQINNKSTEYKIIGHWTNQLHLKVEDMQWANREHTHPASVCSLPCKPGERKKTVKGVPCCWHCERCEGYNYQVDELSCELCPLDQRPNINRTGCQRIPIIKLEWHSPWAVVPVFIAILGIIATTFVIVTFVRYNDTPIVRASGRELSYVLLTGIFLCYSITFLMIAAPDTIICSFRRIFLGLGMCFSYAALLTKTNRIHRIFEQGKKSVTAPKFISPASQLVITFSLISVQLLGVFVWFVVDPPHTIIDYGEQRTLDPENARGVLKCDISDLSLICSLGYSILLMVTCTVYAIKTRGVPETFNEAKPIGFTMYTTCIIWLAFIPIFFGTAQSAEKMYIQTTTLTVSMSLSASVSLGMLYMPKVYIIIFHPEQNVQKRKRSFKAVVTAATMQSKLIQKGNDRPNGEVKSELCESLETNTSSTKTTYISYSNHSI

SMILES	z-score
CCn1c(SCC(=O)c2ccc(O)c(O)c2)nnc1-c1ccccc1	-0.27
COc1ccc(C(=O)Nc2ccccc2Cc2ccccc2)c(OC)c1	-0.617
COc1ccc(C(=O)Nc2ccc(C(=O)Nc3nccs3)cc2)cc1[N+](=O)[O-]	-0.195
O=C(Nc1ccn(Cc2c(F)c(F)cc(F)c2F)n1)c1ccc(COc2ccc(Cl)cc2Cl)o1	-0.0609
Cc1ccccc1-c1cc2c(nn1)-c1ccccc1C2=O	-0.0468
CC(C)CC(NS(=O)(=O)c1ccccc1)C(=O)O (centres undefined)	-0.399
Cc1cc(C)n(C(=O)CNc2cccc(Cl)c2C)n1	-0.289
O=C(NC(=S)Nc1ccccn1)c1ccco1	1.2
O=C(NCc1ccc2c(c1)OCO2)c1ccc(CSCc2cccc(Cl)c2)o1	-0.393
CN(c1ccc(C(=O)N2CCN(c3ccc(F)cc3)CC2)cc1)S(C)(=O)=O	-0.252
Cc1ccccc1-n1c(C)cc(/C=N/NC(=O)c2ccc(CN3CCOCC3)cc2)c1C	-0.392
O=C(CCSc1nc(-c2ccco2)cc(C(F)(F)F)n1)NCCc1ccccc1	-1.05
Cc1ccc(-c2c[n+](CC(=O)N3c4ccccc4Sc4ccccc43)c3n2CCC3)cc1	-0.236
O=C(c1ccc(Cn2c(=O)[nH]c3ccccc3c2=O)cc1)N1CCN(c2ccc(Cl)cc2)CC1	-0.127
CCc1nc2oc3ccccc3c(=O)c2c(=O)n1Cc1ccccc1	-0.473
O=C(CCCC(=O)N(c1ccc2c(c1)OCCO2)C(C(=O)NC1CCCCC1)c1ccc(F)cc1)Nc1ccccn1 (centres undefined)	0.035
Cc1ccc(CN2CCN(/N=C/c3ccc(C(F)(F)F)cc3)CC2)c(C)c1	-0.0788
CCOc1ccc(N(CC(=O)NCc2ccco2)S(C)(=O)=O)cc1	0.0426
Cc1ccc(C(c2sc3ncnn3c2O)N2CC(C)CC(C)C2)cc1 (centres undefined)	-0.254
O=C(Nc1ccc(S(=O)(=O)N2CCCC2)cc1)c1ccc(CN2CCc3ccccc3C2)cc1	0.383
O=C(Nc1nc2c(s1)CCCC2)C1COc2ccccc2O1 (centres undefined)	-0.35
Cc1ccc(OCCn2c(CCCO)nc3ccccc32)cc1	-1.36

SMILES	z-score
Clc1ccc(C2CC(c3ccco3)n3ncnc3N2)cc1Cl (centres undefined)	-0.108
Cc1ccc(-n2c(SCC(=O)N/N=C/c3ccc(C)s3)nnc2-c2ccccc2)cc1	-0.987
Cc1nc2c(-c3ccc(F)cc3)c(C)nn2c(C)c1CCC(=O)N1CCN(c2ccccc2)CC1	-0.81
Cc1ccc(OCCCN2CCCC2)c(C)c1	0.132
CC(C)n1c(NCc2cccs2)nc2ccccc21	0.0512
O=C(NCc1ccccc1)C(=O)Nc1nc(C23CC4CC(CC(C4)C2)C3)cs1	active: 3.44
O=C1c2cc([N+](=O)[O-])cc3cc([N+](=O)[O-])cc(c23)C(=O)N1c1ccccn1	-0.0109
Cn1c(C(=O)N(Cc2ccccc2)Cc2ccccn2)cc2sccc21	-1.21
Cc1cccc(-n2c(SCC(=O)NCc3ccco3)nc3ccccc3c2=O)c1	-0.748
Cn1cnc([N+](=O)[O-])c1Oc1cccc2ccccc12	-0.093
COc1ccccc1N1CCN(c2cc(=O)n(Cc3ccc(F)cc3)c(=O)[nH]2)CC1	0.024
CCCn1c(NC(=O)C2COc3ccccc3O2)nc2ccccc21 (centres undefined)	0.521
CC(C)(C)NC(=S)NCc1cccnc1	0.234
O=C(NCCc1ccccc1)c1ccc(-n2cnnn2)cc1	0.717
CC(=O)NS(=O)(=O)c1ccc(N=c2ssc3c2-c2cc(C)c(C)cc2NC3(C)C)cc1	0.114
CCCOc1ccc(-c2nnn(CC(=O)c3c[nH]c4ccccc34)n2)cc1	-0.0617
Cc1cc2cc(C)c3nnc(SCC(=O)Nc4ccc(S(=O)(=O)N5CCCCC5C)cc4)n3c2cc1C (centres undefined)	-0.264
CC(=O)N(c1nc(CCl)cs1)c1c(C)cc(C)cc1C	1.43
O=C(OCc1c(Cl)cccc1Cl)c1ccncc1	-0.266
COc1ccc(/C=N/NC(=O)CSc2nnc(CCCc3ccc(OC)c(C)c3)o2)cc1	-0.18
c1coc(CNc2nc(-c3ccncc3)cs2)c1	-0.199
O=C(Nc1nc2n(n1)C(c1ccccc1)CC(c1ccc(Cl)cc1)N2)c1ccco1 (centres undefined)	-1.52

SMILES	z-score
O=C(c1ccc(Cl)c(S(=O)(=O)N2CCc3ccccc3C2)c1)N1CCN(c2ccccc2)CC1	-0.0565
O=C(Cn1c(=S)[nH]c2ccccc21)c1ccccc1	-0.531
O=C(NNC(=O)c1cc(-c2ccc(Cl)cc2Cl)nc2ccccc12)Nc1ccccc1	-0.0621
S=C(NCc1ccncc1)Nc1ccc(Cl)cc1	0.311
OC(CN1C2=NCCCN2c2ccccc21)c1ccc(Cl)cc1 (centres undefined)	0.782
Cc1cccc(-c2nnc(SCC#N)n2-c2ccccc2)c1	-0.239
Cc1ccc2oc(=O)c3cnn(CC(=O)N4CCN(c5ccccn5)CC4)c3c2c1	-0.87
Cc1cccc(S(=O)(=O)Nc2nc3ccccc3nc2NCc2ccc3c(c2)OCO3)c1	-0.402
COc1cc(/C=N/Nc2cccc(C)c2)ccc1OC(=O)c1ccco1	-1.01
CC(=O)NS(=O)(=O)c1ccc(N=NN2CCCCC2)cc1	0.395
C=Cn1c(N2CCOCC2)nc2c1c(=O)[nH]c(=O)n2C	0.39
COc1ccc(-c2cn3c(C)c(C(=O)Nc4cccc(C)n4)sc3n2)cc1	-0.14
Oc1ccccc1N=Cc1sc2ccccc2c1Cl	-0.0663
Cn1c(CCNC(=O)c2cccs2)nnc1SCC(=O)Nc1nc(-c2ccccc2)cs1	-0.799
CCOc1ccc(N(C(C)C(=O)N/N=C(\C)c2cccc(NC(=O)c3ccccc3)c2)S(C)(=O)=O)cc1 (centres undefined)	0.165
COc1ccccc1N1CCN(C(=O)CN(c2ccc(C)c(C)c2)S(C)(=O)=O)CC1	0.325
ONC(=Nc1ccc(Cl)cc1)c1ccccc1	-0.177
COc1ccc2nc(C)c3cc(C)oc3c2c1	-0.404
CN(C)S(=O)(=O)N1CCc2ccccc21	0.738
CC1CCCC(C(=O)O)N1C(=O)CCSC(=O)c1ccccc1 (centres undefined)	-0.482
CN1CCC(=NNC(=O)C(=O)NCc2ccccc2)CC1	0.49
O=C(Cc1ccccc1)Nc1ccc(SC(F)F)cc1	0.0729

SMILES	z-score
Cc1cccc(OCCCC(=O)N2CCCc3ccccc32)c1C	0.674
COc1ccc(-c2cc(-c3nnc(COC(=O)C4CC4C)o3)c3ccccc3n2)cc1OC (centres undefined)	-0.151
Cc1cccc(-c2noc(-c3ccc(Cl)cc3[N+](=O)[O-])n2)c1	-2.09
Cc1ccc2c(CC(=O)N3CCN(S(=O)(=O)c4cccs4)CC3)coc2c1	-0.213
C=CCNc1nnc(SC2CC(=O)N(c3ccc(OCCC)cc3)C2=O)s1 (centres undefined)	-0.0986
O=[N+]([O-])c1cccc(C(=Nc2ccccc2Cl)NO)c1	-0.297
CCNC(=O)CCSc1nnc(-c2ccco2)o1	0.0546
CCOc1ccccc1NC(=S)NNS(=O)(=O)c1c(C)cc(C)cc1C	0.289
Cc1nc(SCC(=O)N2CCc3ccccc3C2)c2c(C)c(C)sc2n1	-0.304
CCn1c(NC(=S)Nc2ccccc2)nc2ccccc21	active: 15.2
CC(C)C(=O)c1cn(CC(=O)NCc2ccc3c(c2)OCO3)c2ccccc12	-1.01
CCCC(C)NC(=O)COc1ccc(S(=O)(=O)c2ccc(OCC(=O)NC(C)CCC)cc2)cc1 (centres undefined)	-0.128
CC(NC(=S)Nc1ccc(S(N)(=O)=O)cc1)c1ccc2c(c1)OCO2 (centres undefined)	-0.409
Cn1c(Cl)c(/C=N/OC(=O)c2ccccc2Cl)c2ccccc21	0.017
Cc1cccc(Nc2nc(N)nc(CSc3nccc(C)n3)n2)c1	0.127
Brc1ccc(CSc2nnc(-c3ccco3)o2)cc1	-0.352
CCOC(=O)C1=C(c2ccccc2)O/C(=C(/C(=O)OC)C(F)(F)F)S1	-0.0864
CCCn1nnnc1NC(=O)c1cccs1	0.876
Cc1ccc(C)c(NC(NC(=O)c2cccnc2)C(Cl)(Cl)Cl)c1 (centres undefined)	-0.0606
COc1ccccc1N1CCN(S(=O)(=O)Cc2ccccc2Cl)CC1	-0.125
COc1ccc(/C=C2\C(=O)NC(=S)N2C(=O)c2ccc(F)cc2)cc1	active: 3.14
CCCC1CCC(c2nc(-c3cccnc3)no2)CC1 (centres undefined)	0.21

SMILES	z-score
Cc1ccc(S(=O)(=O)NCc2ccc(/C=C(/C#N)C(=O)NCc3ccccc3)o2)cc1	-0.359
CCN=c1sc2ccccc2n1CC(O)COc1ccccc1 (centres undefined)	0.979
Cc1cccc2cc(CN(Cc3cccs3)C(c3nnnn3C3CCCC3)C(C)C)c(=O)[nH]c12 (centres undefined)	0.101
Cc1ccc(-c2nc(N/N=C/c3ccccc3[N+](=O)[O-])c3ccccc3n2)cc1	-0.406
CC(=O)NCC(=O)N(c1ccccc1)C1(C(=O)NC2CCCCC2)CCCCC1	0.432
COc1ccc(N(C(=O)C(C)C)S(=O)(=O)c2cccs2)cc1	0.0305
CCOc1ccc(OCC(=O)Nc2ccc(S(=O)(=O)Nc3cc(C)nc(C)n3)cc2)cc1	0.47
OCCN(Cc1ccccc1)Cc1ccccc1Cl	0.0815
O=C1CCOc2cc(OCc3ccccc3)ccc21	-0.0517
CC1CCN(S(=O)(=O)c2ccc(S(=O)(=O)N3CCCN(Cc4ccccc4)C3)cc2)CC1	-0.138
CCOC(=O)N1CCN(S(=O)(=O)c2ccc(C)cc2)C1c1ccccc1 (centres undefined)	-0.0804
CCCCOC(=O)c1ccc(NC(=O)c2ccoc2C)cc1	-0.0292
O=C(CC1c2ccccc2Oc2ccccc21)N1CCN(c2ccccn2)CC1	-0.502
O=Cc1c(N2CCCCCC2)nc2ccccn2c1=O	-0.652
CCCc1nc2ccccc2n1CCOc1ccccc1	-0.561
COc1ccc(Cn2c(CCC(=O)Nc3ccccc3)nc3cccnc32)cc1	-0.156
CCC(=O)N1CCN(c2c(Cl)cccc2[N+](=O)[O-])CC1	-0.126
NC(=O)c1ccccc1NS(=O)(=O)Cc1ccccc1	0.144
C=CCSc1nnc(-c2cnn(-c3ccccc3)c2-n2cccc2)n1C	-0.242
CC(CC(=O)Nc1ccc(Cl)c([N+](=O)[O-])c1)c1ccccc1 (centres undefined)	-0.175
O=C(NC(=S)Nc1ccccc1N1CCCCC1)c1cccs1	-0.0387
